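Growth conditions: 96-well plates. Treatment: test compound, 48 hours, 5 concentrations. Analysis: linear interpolation between bracketing concentrations; unreached endpoints set to highest concentration. GI50 = concentration required for 50% inhibition of growth.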 The source made the active and inactive calls. Rule as the data show it: active = GI50 up to about 1.1 µM and inactive = higher. Where only a bound is given, the exact number is not on record here.

The assay concerns NCI-H322M. The experiment in a line: NCI-60 cell line screen, 48 h.
With `CCCCCCCCCCCCCCCC(=O)OCC(O)C1OC(=O)C(O)=C1O` (stereo unspecified), the GI50 is inactive: 29.8 µM.
The value for `CCCCc1ccc(Nc2nc(N)c3[nH]cnc3n2)cc1` was inactive: 19.7 µM.
The value for `COc1cc([C@@H]2c3cc4c(cc3[C@@H](OC3OC5COC(C)OC5C(O)C3O)[C@H]3COC(=O)[C@H]23)OCO4)cc(OC)c1O` (stereo partly specified) was inactive: 86.5 µM.
Next, `CN(C)Cc1nsc(N(C)C)n1`: inactive: > 100 µM; `O=C1C2CCN(CC2)C1(CO)CO`: inactive: 62.4 µM.
Consider `OCC[N+]12CCCN1CCC2`, for which the GI50 was inactive: > 100 µM.
Next, `COC(=O)c1cc2c(c(C(=O)OC)c1O)C(=O)C=CC2=O`: inactive: > 100 µM.
Turning to `COc1cc(C2C3=C(COC3=O)Oc3cc4c(cc32)OCO4)ccc1OC(C)=O` (stereo unspecified), the GI50 was active: 0.589 µM.
The value for `COc1nc(NC2OCC(OC(C)=O)C(OC(C)=O)C2OC(C)=O)c(/N=C(\C)C(C)=O)c(=O)n1C` (stereo unspecified) was inactive: > 100 µM.
Next, `COc1cc2c(cc1OC)-c1c3cc(O)ccc3nn[n+]1CC2`: inactive: > 100 µM; `O=C(Cc1ccccc1)NN1C(=O)C(Cl)C1c1cc(Br)ccc1O` (stereo unspecified): inactive: 5.32 µM.
As to `CCCC1CC(=O)NC(=O)C1C(=O)OC(C)(C)C` (stereo unspecified), the GI50 was inactive: > 100 µM.
`CC(C)/C(Cl)=N\OC(=O)Nc1ccc(F)cc1F`: the GI50 is inactive: 2.77 µM.
Next, `CCCCCCCCC/C=C1\CCC(CN2CCOCC2)C1=O` (stereo unspecified): inactive: 14.1 µM; `Cc1cn(CCOCCOC(=O)NC(CCCNC(N)=O)C(=O)O)c(=O)[nH]c1=O` (stereo unspecified): inactive: > 100 µM; `COc1ccc2c(ccc3c(C(=O)NCCCN(C)CCCNC(=O)c4cn(C)c5c4ccc4cc(OC)ccc45)cn(C)c32)c1`: inactive: 3.03 µM.
The value for `CC(C)(C)OC(=O)n1c(-c2ccccc2F)cc(=O)c2cc3c(cc21)OCO3` was active: 0.27 µM; that for `O=C1CC(c2ccc(Cl)cc2)C2(C(=O)NC(=S)NC2=O)C(c2ccc(Cl)cc2)C1` (stereo unspecified) was inactive: 17.7 µM; that for `COc1cccc(N(CN2C(=O)CCC2OC)C(C)=O)c1` (stereo unspecified) was inactive: > 100 µM.
Take `Cc1ccc(S(=O)(=O)SCc2ccccc2CSS(=O)(=O)c2ccc(C)cc2)cc1`: the GI50 was inactive: > 100 µM.
The value for `O=C(N/C=C1\C(=O)Oc2ccccc2C1=O)Nc1ccccc1` was inactive: 42 µM.
The value for `COC(=O)[C@@H]1Cc2ccc(OC)c(c2)OCCC(=O)N1` was inactive: > 100 µM; that for `COc1ccc2oc3cccc(NCCN(C)C)c3c(=O)c2c1` was inactive: 11.4 µM; that for `CN(C)c1ccc(/C=N/C23CC4CC(CC(C4)C2)C3)cc1` was inactive: > 100 µM.
In the case of `O=C(O)C1CCC(=O)N1C(=O)C(Cl)c1ccccc1` (stereo unspecified), the GI50 was inactive: > 100 µM.
Next, `O=C(c1ccccc1)C1CCCCN1C(=O)c1ccccc1` (stereo unspecified): inactive: > 100 µM; `c1ccc(COCC23CCN(Cc4ccccc4)C(CC(OCc4ccccc4)C2)S3)cc1` (stereo unspecified): inactive: 36.7 µM; `CC1(C)CC[C@]2(C(=O)O)CC[C@]3(C)C(=CC[C@@H]4[C@@]5(C)CC[C@H](OC6OC(C(=O)O)C(O)C(O)C6O)C(C)(C)[C@@H]5CC[C@]43C)[C@@H]2C1` (stereo partly specified): inactive: 13.3 µM.
Next, `CCOC(=O)C1CCC/C1=N\NC(=N)N.Cc1cc(O)c(C(C)C)cc1S(=O)(=O)O` (stereo unspecified): inactive: > 100 µM; `O=C1CCc2cc3c(cc21)C(C(=O)O)CC3` (stereo unspecified): inactive: > 100 µM; `CC1(C)CC(N2CCN(C3CC(C)(C)NC(C)(C)C3)CC2)CC(C)(C)N1`: inactive: > 100 µM.
Turning to `O=[N+]([O-])c1ccc(OCc2nnc(CCCCCCCCc3nnc(COc4ccc([N+](=O)[O-])cc4)o3)o2)cc1`, the GI50 is inactive: > 100 µM.
Next, `CO[C@H]1C=C[C@]23c4cc5c(cc4CN(CC2O)[C@@H]3C1)OCO5` (stereo partly specified): inactive: 2.51 µM.
As for `CC(C)=C[C@@H]1O[C@H](O)[C@@H]([C@H]2CC[C@@]3(C)[C@@H]4CC[C@H]5C(C)(C)C(=O)CC[C@@]56C[C@@]46CC[C@]23C)[C@@H]1O`, the GI50 is inactive: 18 µM.
As for `CN(C)CCNC(=O)Cn1ccc(=O)c2cc([N+](=O)[O-])ccc21`, the GI50 was inactive: > 100 µM.
As for `CC(CN(C)C)C(O)(c1ccccc1)c1ccccc1` (stereo unspecified), the GI50 was inactive: > 100 µM.
The value for `COc1ccc(N[S+]([O-])CCc2ccccc2)cc1` (stereo unspecified) was inactive: > 100 µM; that for `O=C(Nc1ccc(S(=O)(=O)/N=c2\ncccn2C(=O)C(C(F)(F)F)C(F)(F)F)cc1)C(C(F)(F)F)C(F)(F)F` was inactive: > 100 µM.
Next, `O=c1c2cc(Cl)ccc2sc2cccc(Cl)c12`: inactive: > 100 µM.
Next, `c1csc(-c2cscc2-c2ccsc2)c1`: inactive: > 85.3 µM; `Cc1ccc(/N=N/c2ccc(N)cc2C)c(S(N)(=O)=O)c1`: inactive: > 100 µM.
Take `CC(=O)Nc1ccccc1S(=O)(=O)c1ccccc1`: the GI50 was inactive: > 100 µM.
As for `O=C(NN1CCCCC1)c1cc2cc(CCl)ccc2oc1=O`, the GI50 was inactive: 15.9 µM.
The value for `O=C(CC1C(=O)Nc2ccccc2S1(=O)=O)Nc1cc(Cl)ccc1Cl` (stereo unspecified) was inactive: 22.5 µM; that for `COc1ccc2c(c1)N=C(N)n1c(nc3ccccc31)S2` was inactive: 27 µM.
The value for `S=C1Cc2cc3ccccc3nc2-c2ccccc2N1` was inactive: 19.2 µM; that for `CCOC(=O)C(Cc1ccccc1)NC(=O)c1nc[nH]c1/N=N/N(C)C` (stereo unspecified) was inactive: > 100 µM; that for `COc1ccc(C2C3CCc4ccccc4C3=NN2S(=O)(=O)c2ccc(/C=C/C(=O)O)cc2)cc1` (stereo unspecified) was inactive: 19.9 µM.
Consider `Clc1cc2ncn(C3CCCO3)c2cc1Cl` (stereo unspecified), for which the GI50 is inactive: > 100 µM.
For the molecule `CCN1C(=O)C(=C/C=C/c2ccc(OC)cc2)C(=O)N(CC)C1=S`, the GI50 was inactive: > 100 µM.
With `CC1=NN(c2cccc(Cl)c2)C2(C1=Cc1ccc(N(C)C)cc1)C(Cl)C(=O)N2c1nc2ccccc2s1` (stereo unspecified), the GI50 is inactive: 59.8 µM.
Next, `CNC(=O)CN1CC(=O)N(C)C(=O)C1`: inactive: > 100 µM.
The value for `Cc1ccc(SSCCCCCS(=O)O)cc1` was inactive: 45.5 µM; that for `O=S(=O)(O)c1cc(Nc2ccnc3ccccc23)c2c(S(=O)(=O)O)cc(S(=O)(=O)O)cc2c1` was inactive: > 100 µM; that for `S=C(S)NCNC(=S)S` was inactive: > 100 µM.
Next, `C=C1C(=O)C23CC1CCC2C12CO[C@@H]4OCC(C)(CC[C@@H]1OC3=O)C42` (stereo partly specified): inactive: 15.7 µM; `OC1C2CCCCN2C[C@@H](O)[C@H]1O` (stereo partly specified): inactive: > 100 µM.
Regarding `COC1=CC(=O)[C@]2(C)[C@H](C1=O)C(C)[C@H]2c1ccc(OC)cc1` (stereo partly specified), the GI50 was inactive: > 100 µM.
Next, `COc1ccc(-c2cc(O)c3ccc(C)nc3n2)cc1`: inactive: > 100 µM.
Turning to `COc1cc(/C=C/c2ccc(OC)c(OC)c2OC)cc(OC)c1OC`, the GI50 is inactive: 26 µM.
Consider `Cc1cc(C)nc(Sc2c([N+](=O)[O-])ncn2C)n1`, for which the GI50 was inactive: > 100 µM.

For the origin of these results see ChEMBL document CHEMBL1201862, “PubChem BioAssay data set” (2004).
